# The list shows a part of the results.
# B1: PhoQ; a variant is named by its letters at X, in order, P23837 (parent)
# chain: MKKLLRLFFPLSLRVRFLLATAAVVLVLSLAYGMVALIGYSVSFDKTTFRLLRGESNLFYTLAKWENNKLHVELPENIDKQSPTMTLIYDENGQLLWAQRDVPWLMKMIQPDWLKSNGFHEIEADVNDTSLLLSGDHSIQQQLQEVREDDDDAEMTHSVAVNVYPATSRMPKLTIVVVDTIPVELKSSYMVWSWFIYVLSANLLLVIPLLWVAAWWSLRPIEALAKEVRELEEHNRELLNPATTRELTSLVRNLNRLLKSERERYDKYRTTLTDLTHSLKTPLXXLQXXLRSLRSEKMSVSDAEPVMLEQISRISQQIGYYLHRASMRGGTLLSRELHPVAPLLDNLTSALNKVYQRKGVNISLDISPEISFVGEQNDFVEVMGNVLDNACKYCLEFVEISARQTDEHLYIVVEDDGPGIPLSKREVIFDRGQRVDTLRPGQGVGLAVAREITEQYEGKIVAGESMLGGARMEVIFGRQHSAPKDE
# Variants of: B1
# Assay: enrichment ratio after two sorts for PhoP signalling (ratio (wild type AVST 3.29)); higher = more functional
# Conditions: with PhoP (E. coli)
row,Variant,enrichment ratio
1,YDGI,≤ 0.25
2,AWQC,≤ 0.25
3,YHWM,≤ 0.25
4,TTHV,14.6
5,VIPC,≤ 0.25
6,FIKG,≤ 0.25
7,LHVD,≤ 0.25
8,IWST,≤ 0.25
9,MMCA,≤ 0.25
10,FWTT,≤ 0.25
11,EIIH,≤ 0.25
12,GWYT,≤ 0.25
13,YFTC,≤ 0.25
14,GVAM,15.2
15,LLDR,≤ 0.25
16,NTFL,≤ 0.25
17,PMDE,≤ 0.25
18,TFVA,≤ 0.25
19,APSY,≤ 0.25
20,DDLA,≤ 0.25
21,LDWY,≤ 0.25
22,KIII,≤ 0.25
23,SILK,4.02
24,NALA,≤ 0.25
25,DVWR,≤ 0.25

row,Variant,enrichment ratio
1,PKGV,≤ 0.25
2,TPYD,≤ 0.25
3,QDHN,≤ 0.25
4,RSGR,≤ 0.25
5,RAEC,≤ 0.25
6,TIIN,≤ 0.25
7,HNFT,≤ 0.25
8,LPTL,≤ 0.25
9,IKIG,≤ 0.25
10,MSCM,3.66
11,NNVD,≤ 0.25
12,TSAP,≤ 0.25
13,FFDN,≤ 0.25
14,QNCS,≤ 0.25
15,NTWH,≤ 0.25
16,WSKG,≤ 0.25
17,QMKQ,≤ 0.25
18,PFSI,≤ 0.25
19,ANIG,29.2
20,AYDL,≤ 0.25
21,VSTV,5.28
22,NRSI,≤ 0.25
23,WRTR,≤ 0.25
24,QITT,≤ 0.25
25,VVPC,≤ 0.25

row,Variant,enrichment ratio
1,NAML,≤ 0.25
2,LIYV,≤ 0.25
3,WLLD,≤ 0.25
4,NQHH,≤ 0.25
5,KTMI,≤ 0.25
6,EWAP,≤ 0.25
7,SWLQ,≤ 0.25
8,SGPM,≤ 0.25
9,EGCT,≤ 0.25
10,IMLT,≤ 0.25
11,WMWC,≤ 0.25
12,HKIH,≤ 0.25
13,VFCG,≤ 0.25
14,FEVI,7.2
15,MTNM,≤ 0.25
16,QLMW,≤ 0.25
17,ATTC,3.48
18,KAYC,≤ 0.25
19,HSNR,≤ 0.25
20,NEVW,≤ 0.25
21,RCNP,≤ 0.25
22,GQDM,≤ 0.25
23,TVGV,5.79
24,KVGM,≤ 0.25
25,IYEA,≤ 0.25

row,Variant,enrichment ratio
1,KMAW,≤ 0.25
2,QTKG,≤ 0.25
3,NYLA,≤ 0.25
4,FPQH,≤ 0.25
5,EMWD,≤ 0.25
6,WYRY,≤ 0.25
7,GFYV,≤ 0.25
8,QNPI,≤ 0.25
9,TREQ,≤ 0.25
10,AKCP,≤ 0.25
11,FNRR,≤ 0.25
12,AMDV,≤ 0.25
13,PHWH,≤ 0.25
14,KNES,≤ 0.25
15,QTGA,≤ 0.25
16,TDPM,≤ 0.25
17,TSGH,6
18,INVL,≤ 0.25
19,LIQL,≤ 0.25
20,SCQK,10.8
21,TDLD,≤ 0.25
22,IMME,≤ 0.25
23,VTDV,≤ 0.25
24,YMRL,≤ 0.25
25,DDDN,≤ 0.25

row,Variant,enrichment ratio
1,SAYR,≤ 0.25
2,YTRS,1.21
3,SPHI,≤ 0.25
4,SEAK,4.78
5,LQNC,≤ 0.25
6,QDEK,≤ 0.25
7,KSID,≤ 0.25
8,FVDD,≤ 0.25
9,HGSW,≤ 0.25
10,HWGN,≤ 0.25
11,RCVN,1.31
12,KESI,≤ 0.25
13,LFIS,≤ 0.25
14,VDEM,≤ 0.25
15,WGSA,≤ 0.25
16,EMVM,≤ 0.25
17,APTW,≤ 0.25
18,WFGL,≤ 0.25
19,FTMW,≤ 0.25
20,VWDT,≤ 0.25
21,PAHG,≤ 0.25
22,TING,13.9
23,ACMK,17.8
24,YDYD,≤ 0.25
25,LEPS,≤ 0.25

row,Variant,enrichment ratio
1,LKTH,≤ 0.25
2,DKSW,≤ 0.25
3,TDDC,≤ 0.25
4,YKID,≤ 0.25
5,VVSE,≤ 0.25
6,GTHP,≤ 0.25
7,APWY,≤ 0.25
8,EWSY,≤ 0.25
9,HSYH,≤ 0.25
10,PNCE,≤ 0.25
11,DKAR,≤ 0.25
12,KSCD,≤ 0.25
13,ACCR,2.08
14,LVKT,≤ 0.25
15,FIHY,≤ 0.25
16,ATSM,16.9
17,VMNL,≤ 0.25
18,FWWK,≤ 0.25
19,HPDI,≤ 0.25
20,YHPF,≤ 0.25
21,MHCN,≤ 0.25
22,LYWC,0.693
23,YSHW,≤ 0.25
24,MHPD,≤ 0.25
25,RLWC,≤ 0.25

row,Variant,enrichment ratio
1,SFPA,≤ 0.25
2,SHKN,≤ 0.25
3,KDGW,≤ 0.25
4,SLCS,9.87
5,LFLQ,≤ 0.25
6,PYHL,≤ 0.25
7,VTEC,≤ 0.25
8,DLAH,≤ 0.25
9,GIFA,≤ 0.25
10,HNCP,≤ 0.25
11,ILMD,≤ 0.25
12,PMTK,≤ 0.25
13,KVHT,≤ 0.25
14,QVAK,≤ 0.25
15,VIMN,≤ 0.25
16,PHNW,≤ 0.25
17,TPNR,≤ 0.25
18,QAIQ,≤ 0.25
19,CYFH,≤ 0.25
20,IAGE,≤ 0.25
21,IPFN,≤ 0.25
22,MSER,≤ 0.25
23,IWNP,≤ 0.25
24,KRYQ,≤ 0.25
25,DEYH,≤ 0.25

row,Variant,enrichment ratio
1,NFMG,≤ 0.25
2,LNQF,0.521
3,FEPY,≤ 0.25
4,MQPF,≤ 0.25
5,AIRA,≤ 0.25
6,MSFN,1.37
7,FTKN,≤ 0.25
8,QEQS,≤ 0.25
9,SLYV,≤ 0.25
10,RCFC,≤ 0.25
11,RIKH,≤ 0.25
12,VLGQ,≤ 0.25
13,HGCA,≤ 0.25
14,LEFF,≤ 0.25
15,SVVC,2.15
16,WQVS,≤ 0.25
17,GAYK,≤ 0.25
18,PMQI,≤ 0.25
19,WWGR,≤ 0.25
20,APTQ,≤ 0.25
